The entries are a selection whose mix differs from that of the whole data set. The list includes weakly bound sequences.

The record followed here is paper PMC5700166.

Test in all cases: protein-binding microarray (PBM)
What all share (settings): PBM: ~300 nM protein, 6 mM HEPES pH 7.8, 80 mM KCl, 0.5 mM EDTA, 0.5 mM EGTA, 6% glycerol, 35 ng/ul poly-dIdC, 1% milk, 1 h, room temperature; Ap Aiptasia and Nv Nematostella (sea anemones) / Co Capsaspora / Aq Amphimedon (sponge) / Dm Drosophila / Hu human; RHD is the Rel homology domain; high values mean tight binding; most listed sequences are background and not binding sites; double strand, one strand shown

One test concerns the target T1, GST-Ap-NF-kB RHD (UniProt A0A913YAJ5).
T1 sequence: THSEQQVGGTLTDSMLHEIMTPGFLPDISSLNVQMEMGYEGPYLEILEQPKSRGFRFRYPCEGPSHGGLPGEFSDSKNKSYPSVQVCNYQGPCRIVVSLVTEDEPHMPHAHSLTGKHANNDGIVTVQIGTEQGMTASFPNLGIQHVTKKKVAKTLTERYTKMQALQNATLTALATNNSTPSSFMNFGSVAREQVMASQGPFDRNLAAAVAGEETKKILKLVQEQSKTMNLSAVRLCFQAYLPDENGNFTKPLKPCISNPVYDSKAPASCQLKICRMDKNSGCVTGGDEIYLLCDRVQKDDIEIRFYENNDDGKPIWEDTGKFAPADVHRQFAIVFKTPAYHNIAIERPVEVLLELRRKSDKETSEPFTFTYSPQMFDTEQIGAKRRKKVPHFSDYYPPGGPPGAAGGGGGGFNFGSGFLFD

Test [1] concerns the target T2, GST-Nv-NF-kB (Cys allele) (UniProt E5G601).
T2 sequence: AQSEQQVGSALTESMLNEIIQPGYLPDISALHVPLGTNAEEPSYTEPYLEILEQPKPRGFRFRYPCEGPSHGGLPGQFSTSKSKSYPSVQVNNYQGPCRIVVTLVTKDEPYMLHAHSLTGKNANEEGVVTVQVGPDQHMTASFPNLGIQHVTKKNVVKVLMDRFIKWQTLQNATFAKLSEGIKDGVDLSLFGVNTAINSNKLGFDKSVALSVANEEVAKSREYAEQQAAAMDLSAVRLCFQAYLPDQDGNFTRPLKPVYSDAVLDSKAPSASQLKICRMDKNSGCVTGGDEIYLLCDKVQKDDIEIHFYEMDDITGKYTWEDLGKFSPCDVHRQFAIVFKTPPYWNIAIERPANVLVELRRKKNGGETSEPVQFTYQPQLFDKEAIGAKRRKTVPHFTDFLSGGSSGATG

The target of the next test is T3, GST-Co-NF-kB (UniProt F1ARL5).
T3 sequence: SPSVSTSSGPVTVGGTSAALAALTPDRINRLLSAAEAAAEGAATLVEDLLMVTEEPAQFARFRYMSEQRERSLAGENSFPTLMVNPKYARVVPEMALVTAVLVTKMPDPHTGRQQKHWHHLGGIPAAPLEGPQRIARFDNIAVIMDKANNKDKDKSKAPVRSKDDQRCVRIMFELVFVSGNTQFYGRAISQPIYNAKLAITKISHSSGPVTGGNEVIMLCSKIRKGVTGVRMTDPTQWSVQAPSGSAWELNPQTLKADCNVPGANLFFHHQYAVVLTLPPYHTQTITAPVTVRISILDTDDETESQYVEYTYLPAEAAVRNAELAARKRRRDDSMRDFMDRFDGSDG

The next test has as its target T4, GST-Dm-Relish (UniProt Q94527).
T4 sequence: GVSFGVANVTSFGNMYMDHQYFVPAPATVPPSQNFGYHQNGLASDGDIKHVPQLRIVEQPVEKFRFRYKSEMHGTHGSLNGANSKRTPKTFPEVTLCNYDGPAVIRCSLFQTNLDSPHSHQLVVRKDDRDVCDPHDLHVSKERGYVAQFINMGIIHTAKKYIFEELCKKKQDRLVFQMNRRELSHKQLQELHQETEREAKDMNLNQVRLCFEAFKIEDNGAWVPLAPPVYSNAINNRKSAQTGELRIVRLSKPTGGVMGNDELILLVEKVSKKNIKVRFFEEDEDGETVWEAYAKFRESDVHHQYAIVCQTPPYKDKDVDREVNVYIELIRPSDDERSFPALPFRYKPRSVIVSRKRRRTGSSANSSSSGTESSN

A further test deals with T5, GST-Aq-NF-kB (UniProt A9Y5G7).
T5 sequence: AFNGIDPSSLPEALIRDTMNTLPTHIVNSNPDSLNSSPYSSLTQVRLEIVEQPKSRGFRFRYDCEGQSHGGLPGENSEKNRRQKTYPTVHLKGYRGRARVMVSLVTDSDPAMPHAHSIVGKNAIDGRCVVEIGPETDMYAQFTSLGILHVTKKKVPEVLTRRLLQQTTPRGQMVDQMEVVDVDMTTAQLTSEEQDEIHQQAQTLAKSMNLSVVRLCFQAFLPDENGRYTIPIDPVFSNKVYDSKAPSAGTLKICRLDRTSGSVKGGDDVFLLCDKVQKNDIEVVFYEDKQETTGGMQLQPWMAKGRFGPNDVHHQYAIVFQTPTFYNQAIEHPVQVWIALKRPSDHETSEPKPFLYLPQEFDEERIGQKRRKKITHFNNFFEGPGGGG

For the sequence “CCGATTAACATCAGGAAACAATGTGATGTTAATCGGGTCTTGATTCGCTTGACGCTGCTG”, the binding signal with GST-Ap-NF-kB RHD is -0.0973 z-score; in test [1] it was -0.115 z-score; in the test with GST-Co-NF-kB it was 0.917 z-score; with GST-Dm-Relish, 0.557 z-score; with GST-Aq-NF-kB, -0.156 z-score.
The matching figures for “CCGATTAACATCATATACTAATCTGATGTTAATCGGGTCTTGATTCGCTTGACGCTGCTG”: -0.23 z-score, -0.0186 z-score, 0.0844 z-score, -0.498 z-score and -0.431 z-score.
For the sequence “CCGATTAACATCAACTCTATAAGTGATGTTAATCGGGTCTTGATTCGCTTGACGCTGCTG”, the binding signal with GST-Ap-NF-kB RHD is -0.673 z-score; in test [1] it was -0.366 z-score; with GST-Co-NF-kB it was -0.536 z-score; in the test with GST-Dm-Relish, -0.251 z-score; with GST-Aq-NF-kB, -0.576 z-score.
The like results for “CCGATTAACATCAGGAATCGCCATGATGTTAATCGGGTCTTGATTCGCTTGACGCTGCTG” were, in that order, -0.281 z-score, -0.231 z-score, -0.965 z-score, -0.248 z-score and -0.108 z-score.
In the case of “CCGATTAACATCAGTTTGTATTCTGATGTTAATCGGGTCTTGATTCGCTTGACGCTGCTG”, the binding signal was -0.508 z-score with GST-Ap-NF-kB RHD; -0.0695 z-score in test [1]; -0.334 z-score with GST-Co-NF-kB; 0.264 z-score with GST-Dm-Relish; -0.14 z-score in the test with GST-Aq-NF-kB.
The matching figures for “CCGATTAACATCAATAGCGCTCATGATGTTAATCGGGTCTTGATTCGCTTGACGCTGCTG”: -0.113 z-score, -0.212 z-score, -0.91 z-score, -0.774 z-score and -0.126 z-score.
The matching figures for “CCGATTAACATCAGTCTAGATAGTGATGTTAATCGGGTCTTGATTCGCTTGACGCTGCTG”: -0.148 z-score, -0.726 z-score, -0.185 z-score, -0.508 z-score and -0.774 z-score.
As to “CCGATTAACATCAAGGAATTACCTGATGTTAATCGGGTCTTGATTCGCTTGACGCTGCTG”, the binding signal with GST-Ap-NF-kB RHD is 1.08 z-score; in test [1] it was 2.06 z-score; with GST-Co-NF-kB it was -0.0422 z-score; with GST-Dm-Relish, 5.14 z-score; with GST-Aq-NF-kB it was 3.3 z-score.
The like results for “CCGATTAACATCAACTGCCAAGATGATGTTAATCGGGTCTTGATTCGCTTGACGCTGCTG” were, in that order, -0.317 z-score, -0.158 z-score, -0.567 z-score, -1.19 z-score and -0.452 z-score.
The matching figures for “CCGATTAACATCATTAGTCAACCTGATGTTAATCGGGTCTTGATTCGCTTGACGCTGCTG”: -0.786 z-score, -1.3 z-score, -0.516 z-score, -0.659 z-score and -0.386 z-score.
The like results for “CCGATTAACATCACGAGAGAGGATGATGTTAATCGGGTCTTGATTCGCTTGACGCTGCTG” were, in that order, 0.457 z-score, 0.208 z-score, 0.114 z-score, -0.144 z-score and -0.419 z-score.
Consider “CCGATTAACATCACTTGTCGCTTTGATGTTAATCGGGTCTTGATTCGCTTGACGCTGCTG”, for which the binding signal with GST-Ap-NF-kB RHD is -0.364 z-score; in test [1] it was -0.403 z-score; in the test with GST-Co-NF-kB, 0.159 z-score; with GST-Dm-Relish it was -0.0456 z-score; with GST-Aq-NF-kB, -0.307 z-score.
The like results for “CCGATTAACATCAACGTTTCTGTTGATGTTAATCGGGTCTTGATTCGCTTGACGCTGCTG” were, in that order, -0.855 z-score, -0.253 z-score, -0.312 z-score, -0.331 z-score and -0.56 z-score.
